PubChem BioAssay AID1347165 (National Center for Advancing Translational Sciences (NCATS), 2019)
The campaign covered roughly 220,000 compounds. About 5,700 (2.6%) were called active. Inconclusive results, whose numbers are uncertain, are shown with a selection of clear calls. Calls come from the whole dose curve; as a rule, active = well fitted inhibition curve with a large enough effect; inconclusive = small, poorly fitted or top-dose-only effect; inactive = no such curve, though single readings can be large or run the other way. A potency beside an inconclusive call is a rough fit, not a confirmed value.

molecular target: Lysine-specific demethylase 5B (Homo sapiens) (UniProt Q9UGL1); assay: Primary screen for KDM5B Histone Demethylases FDH-coupled qHTS; details: FDH-coupled NADH fluorescence (FDH is formaldehyde dehydrogenase); activity change, negative = inhibition: at 57.7 µM (top of the series) unless noted; note: nearly all actives have a fitted effect of over 70% in size; for activity change, negative = inhibition: 0% is about no effect
Sequence of UniProt Q9UGL1 (Q9UGL1 whole entry, looked up): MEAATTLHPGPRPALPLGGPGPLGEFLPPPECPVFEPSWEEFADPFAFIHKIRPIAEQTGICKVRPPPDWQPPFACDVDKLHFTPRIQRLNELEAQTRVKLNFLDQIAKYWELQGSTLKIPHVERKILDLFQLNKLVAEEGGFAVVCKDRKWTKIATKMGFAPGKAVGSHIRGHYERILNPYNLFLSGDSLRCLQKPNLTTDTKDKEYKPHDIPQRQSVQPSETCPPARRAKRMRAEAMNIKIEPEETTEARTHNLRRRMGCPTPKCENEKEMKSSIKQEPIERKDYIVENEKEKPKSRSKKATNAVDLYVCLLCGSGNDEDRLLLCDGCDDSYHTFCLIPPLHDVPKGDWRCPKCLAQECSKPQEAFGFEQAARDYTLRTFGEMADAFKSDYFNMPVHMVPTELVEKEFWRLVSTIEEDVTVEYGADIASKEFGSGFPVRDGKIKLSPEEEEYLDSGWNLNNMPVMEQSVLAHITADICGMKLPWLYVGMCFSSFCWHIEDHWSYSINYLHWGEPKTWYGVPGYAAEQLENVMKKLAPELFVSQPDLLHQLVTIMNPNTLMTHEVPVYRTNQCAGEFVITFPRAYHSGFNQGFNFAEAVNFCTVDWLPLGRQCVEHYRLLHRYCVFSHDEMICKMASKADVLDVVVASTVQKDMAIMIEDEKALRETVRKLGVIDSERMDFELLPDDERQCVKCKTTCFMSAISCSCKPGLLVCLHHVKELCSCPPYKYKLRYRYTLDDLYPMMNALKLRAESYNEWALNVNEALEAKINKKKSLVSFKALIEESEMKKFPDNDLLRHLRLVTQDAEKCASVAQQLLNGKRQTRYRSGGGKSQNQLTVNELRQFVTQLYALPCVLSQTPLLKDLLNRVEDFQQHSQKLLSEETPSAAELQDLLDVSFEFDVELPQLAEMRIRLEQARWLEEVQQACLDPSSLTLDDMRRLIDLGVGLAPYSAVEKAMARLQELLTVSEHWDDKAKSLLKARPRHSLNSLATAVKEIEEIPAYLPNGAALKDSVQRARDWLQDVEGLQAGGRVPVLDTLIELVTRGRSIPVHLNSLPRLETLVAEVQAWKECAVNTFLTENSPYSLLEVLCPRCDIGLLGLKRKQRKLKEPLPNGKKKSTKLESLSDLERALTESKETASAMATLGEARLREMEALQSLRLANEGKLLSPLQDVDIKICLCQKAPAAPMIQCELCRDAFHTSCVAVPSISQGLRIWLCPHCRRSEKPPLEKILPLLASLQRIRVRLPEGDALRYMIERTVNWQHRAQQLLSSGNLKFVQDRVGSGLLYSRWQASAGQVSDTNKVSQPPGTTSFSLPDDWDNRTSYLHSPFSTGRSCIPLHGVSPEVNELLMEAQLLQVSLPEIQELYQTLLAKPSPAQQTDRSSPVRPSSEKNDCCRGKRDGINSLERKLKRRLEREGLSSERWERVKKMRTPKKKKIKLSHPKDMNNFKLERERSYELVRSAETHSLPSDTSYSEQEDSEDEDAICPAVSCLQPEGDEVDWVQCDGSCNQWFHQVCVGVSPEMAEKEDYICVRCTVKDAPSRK
Excerpt: Assay Submitter (PI): Qin Yan, Ph.D. (Yale University) and Xiaodong Cheng, Ph.D. (MD Anderson) This project was funded as part of the NCI NEXT Program and Chemical Biology Consortium (CBC) The histone demethylases, KDM5A and KDM5B catalyze the demethylation of lysine 4 on histone H3 (H3K4me3/2). They are overexpressed in a variety of cancers and have been implicated in cancer cell growth, metastasis, drug resistance, and tumor growth. KDM5A is amplified and overexpressed in breast and gastric cancer; and is translocated in leukemia. While KDM5B is highly expressed in human mammary tumors and breast cancer cell lines, but not in normal adult breast tissue. Moreover, knockdown of KDM5B leads to upregulation of tumor suppressor genes, including BRCA1. The goal of this project is to employ qHTS to identify selective small molecule inhibitors of KDM5A/B demethylase activity to better understand the role of KDM5 in cancer and to develop novel therapies. We employed an FDH-coupled assay previously reported by Sakurai et al. to monitor in vitro KDM5 demethylase activity. Compounds showing dose response inhibition are re-acquired, validated, and tested for non-specific interference with the formaldehyde dehydrogenase (FDH) counterscreen. True inhibitors are validated using an AlphaLisa secondary screen, which employs an H3K4(me2-1)-specific antibody to monitor demethylation of a biotin-tagged H3K4(me3) peptide substrate. Inhibitors are profiled against KDM4A and KDM6A AlphaLisa counterscreens to determine level of demethylase specificity; and against the TruHits counterscreen to eliminate non-specific inhibitory activity on the AlphaLISA detection method. Selective inhibitors identified from the primary and secondary screening are tested in cells using immunofluorescence to monitor global H3K4 tri-methylation as a measure of KDM5A/B inhibition. Early Translation Branch (ETB) National Center for Advancing Translational Sciences (NCATS), Rockville, MD National Institute of Health (NIH), Bethesda, Maryland [1] Sakurai, M et al. A miniaturized screen for inhibitors of Jumonji histone demethylases. Mol Biosyst. 2010 Feb;6(2):357-64. doi: 10.1039/b912993f. Epub 2009 Oct 8.
Materials: 1536-well Black, solid bottom, medium binding assay plate is purchased from Greiner Bio-one. The enzymes (KDM5B) and substrate (H3K4me3/2) are provided by the principal investigators. The buffer for this assay is composed of 50mM HEPES at pH 7.5 with 0.01% Tween-20. FDH coupled Demethylase qHTS protocol: Three microliter enzyme mix (buffer + 200nM KDM5BDeltaAP final concentration) is dispensed into the assay plate using the BioRAPTR Flying Reagent Dispenser (FRD; […]). Compound (at various final concentration) and control solution is pin transferred to the assay plate using the Kalypsys 1536-pin tool apparatus. The assay plate is incubated for 10 min at room temperature followed by addition of 1uL substrate mix (buffer + 100uM ascorbic acid, 50uM ferrous ammonium sulfate, 12.5uM H3K4Me3, 25uM a-ketoglutarate, 0.25 mM NAD+, 0.25 U/mL formaldehyde dehydrogenase using the FRD yielding a total reaction volume of 4 uL. Initial fluorescence (Read1) is detected using the PerkinElmer ViewLux plate reader equipped with 340 nm excitation and 450 nm emission filters. The final fluorescence (Read2) signal is obtained after 30 min of room temperature incubation. Delta RFU is calculated (Read2 - Read1) and is used to generated dose response curves.
Potency is the fitted concentration of half-maximal effect; tags give direction and shape of the fitted curve.

| Structure (SMILES) | Potency | activity change, negative = inhibition |
| --- | --- | --- |
| CCOC(=O)N1CCc2c(sc3c2C(=O)NC(c2ccc(C(=O)OC)cc2)N3)C1 (centres undefined) | inconclusive: 28.2 µM [inhibitor, partial curve, poor fit] | – |
| CC1(C(=O)N2CCCC2)CCCc2cnc(Nc3cccnc3)nc21 (centres undefined) | – | inactive: 4.5% [at 86.2 µM] |
| CCOC(=O)CSc1nc2sc3c(c2c(=O)n1-c1ccc(OC)cc1)CC(C(C)C)OC3 (centres undefined) | – | inactive: 8.3% [at 11.5 µM] |
| Cc1ccccc1N1CC(c2nc3ccccc3n2Cc2ccc(Br)cc2)CC1=O (centres undefined) | inconclusive: 25.1 µM [inhibitor, single point] | – |
| O=C1NCCCCCCN(Cc2ccncc2)[C@@H]2CN(C(=O)c3cccnc3)CC[C@@H]12 | inconclusive: 20 µM [inhibitor, single point] | – |
| O=C(c1ccc(-c2ccc([N+](=O)[O-])cc2)o1)N1CCCCCCC1 | inconclusive: 39.8 µM [inhibitor, partial curve, poor fit] | – |
| Cc1nc(CN2CC3(CCN(C)C3)c3cc(C(=O)Nc4ccc(F)cc4)ccc32)cs1 (centres undefined) | active: 25.1 µM | – |
| COc1ccc(C(=O)N2CC[C@H]3C(=O)NCCCCCCN(Cc4ccncc4)[C@@H]3C2)cc1 | inconclusive: 20 µM [inhibitor, partial curve, poor fit] | – |
| COc1ccc(OC)c(C(=O)CN2C(=O)N(c3ccc(C)cc3)S(=O)(=O)c3ccccc32)c1 | inconclusive: 14.1 µM [inhibitor, partial curve, poor fit] | – |
| COc1ccc(-c2[nH]ncc2CN2CCCCCNC(=O)CC2c2ccccc2)cc1 (centres undefined) | – | inactive: 30.8% |
| CC(C)CCC(CCNC1CCC(C)CC1)C1CCOC(C)(C)C1 (centres undefined) | inconclusive: 31.6 µM [inhibitor, single point] | – |
| O=C(Cn1c(-c2cccs2)cc2ccccc21)N1CCN(c2ccc(F)cc2)CC1 | inconclusive: 28.2 µM [inhibitor, partial curve, poor fit] | – |
| C[C@H](C(=O)NCCN1CCOCC1)C1CC[C@@]2(C)Cc3sc(NC(=O)CC(C)(C)C)nc3[C@@H](C)[C@@H]2[C@H]1O (some centres undefined) | inconclusive: 28.2 µM [inhibitor, single point] | – |
| COC(=O)c1c(-c2cccs2)csc1NC(=O)c1ccc(C)cc1 | inconclusive: 2.82 µM [inhibitor, full curve, poor fit] | – |
| c1ccc(CC2CCOC3(CCN(Cc4ccncc4)CC3)C2)cc1 (centres undefined) | inconclusive: 7.08 µM [inhibitor, partial curve, poor fit] | – |
| COC(=O)CN1C(=O)[C@@H]2C[C@@H](O)CN2C2(CN(Cc3ccc(OC)c4ccccc34)C2)C1=O | inconclusive: 8.91 µM [inhibitor, partial curve] | – |
| CCc1ccc(NC(=O)C2CCCN(c3nnc(C)c4c(C)n(-c5ccccc5)nc34)C2)cc1 (centres undefined) | – | inactive: -9.5% |
| O=C(NCc1ccccn1)C1CCN(C(=O)N2CC3CC(C2)[C@H]2CCCC(=O)N2C3)CC1 (some centres undefined) | inconclusive: 39.8 µM [inhibitor, partial curve, poor fit] | – |
| COCCN[C@H]1C[C@@H]2c3[nH]c4ccccc4c3C[C@@H](C(=O)OC)N2[C@H](c2ccccc2)C1 | active: 28.2 µM | – |
| COC(=O)c1cc2oc3ccccc3c2n1Cc1ccccc1Cl | inconclusive: 2.82 µM [inhibitor, partial curve, poor fit] | – |
| O=C(NCc1cnccn1)c1ccc(-c2ncc3cnc(C4=CCOCC4)cn23)cc1 | active: 35.5 µM | – |
| CCn1cc(C(=O)NP(=O)(Nc2ccc(C)cc2)Nc2ccc(C)cc2)c2ccccc21 | inconclusive: 28.2 µM [inhibitor, partial curve, poor fit] | – |

| Structure (SMILES) | Potency | activity change, negative = inhibition |
| --- | --- | --- |
| CCCc1cc(=O)oc2c(C)c(OCC(=O)NC3CC(C)(C)NC(C)(C)C3)ccc12 | inconclusive: 39.8 µM [inhibitor, single point] | – |
| Cc1cccc(C)c1Nc1c(-c2ccsc2)nc2cccc(C)n12 | inconclusive: 5.62 µM [inhibitor, partial curve, poor fit] | – |
| O=C(c1cccc(Cl)c1)N1CCc2nc(C3CC3)nc(-c3ccc(O)cc3)c2CC1 | – | inactive: -6.33% |
| COc1ccccc1N1CCN(c2csc3ccccc3c2=O)CC1 | inconclusive: 25.1 µM [inhibitor, partial curve, poor fit] | – |
| Cc1ccc(NC(=O)Cn2c(=O)n(Cc3ccc(C(=O)NCc4ccc5c(c4)OCO5)cc3)c(=O)c3ccccc32)cc1 | inconclusive: 3.98 µM [inhibitor, full curve, poor fit] | – |
| CCOc1ccc(CNC(=O)CCS(=O)(=O)c2ccc3c(c2)oc(=O)n3C)cc1 | – | inconclusive: -139% [inhibitor] [at 11.5 µM] |
| Cc1ccc2nc(/C(C#N)=C\C3CC4C=CC3C4)[nH]c2c1 (centres undefined) | inconclusive: 20 µM [inhibitor, partial curve, poor fit] | – |
| N#Cc1cccc(NC(=O)N[C@H]2CO[C@H]3[C@@H]2OC[C@@H]3Nc2nccc(C3CCCC3)n2)c1 | inconclusive: 35.5 µM [inhibitor, partial curve] | – |
| O=C(NCC1CC1)c1ccc2c(c1)C1(CCN(CC3CC3)C1)CN2Cc1ccccc1 (centres undefined) | active: 28.2 µM | – |
| CC(C)=C(C#N)c1nc2ccccc2[nH]1 | inconclusive: 31.6 µM [inhibitor, partial curve, poor fit] | – |
| COc1ccc(CNc2ncnc3c2[nH]c2cc(OC)c(OC)cc23)cc1 | inconclusive: 20 µM [inhibitor, partial curve, poor fit] | – |
| N#Cc1c(-c2ccco2)cc(-c2ccccc2)[nH]c1=O | inconclusive: 20 µM [inhibitor, partial curve, poor fit] | – |
| COc1ccc(CNc2nc3c(c(=O)[nH]c(=O)n3C)n2Cc2ccccc2)cc1 | – | inactive: 13.7% |
| CNC(=O)[C@@H](Cc1ccccc1)N1CCC[C@H]1C(=O)NCC1CC1 | inconclusive: 28.2 µM [inhibitor, single point] | – |
| N#Cc1ccc(CS(=O)(=O)Cc2cccc(F)c2)cc1 | – | inactive: -4.77% |
| COc1cccc(CNC(=O)CN2C(=O)NC(c3ccc(Cl)cc3)C3=C2COC3=O)c1OC (centres undefined) | – | inactive: -3.91% |
| Cc1nc(Nc2cccc(C(F)(F)F)c2)sc1C(=O)N(C)C | – | inactive: -22.2% |
| COc1ccc(-c2cc(C(=O)N(C)CCO)c3ccccc3n2)cc1 | inconclusive: 28.2 µM [inhibitor, partial curve, poor fit] | – |
| CCC1=C(C(=O)OC)C(c2ccc(Cl)cc2)N2C(CC(=O)N3CCOCC3)=CSC2=N1 (centres undefined) | inconclusive: 14.1 µM [inhibitor, partial curve, poor fit] | – |
| CCCn1nc(C(=O)Nc2ccc(OCC(=O)N(C)C)cc2)c2ccccc2c1=O | – | inactive: 12.3% |
| COc1ccc(NC(=O)Cc2c(C)c3ccc(O)cc3oc2=O)cc1OC | inconclusive: 10 µM [inhibitor, partial curve, poor fit] | – |
| CC(=O)c1ccc(NC(=O)C2=Cc3sc4c(c3CS2)CCCC4)cc1 | inconclusive: 28.2 µM [inhibitor, partial curve, poor fit] | – |

| Structure (SMILES) | Potency | activity change, negative = inhibition |
| --- | --- | --- |
| CCOc1ccccc1NC(=O)C1=C(C)Nc2ncnn2C1c1cccs1 (centres undefined) | inconclusive: 35.5 µM [inhibitor, partial curve, poor fit] | – |
| O=C1c2cc(N3CCOCC3)nc(-c3ccccc3F)c2CN1CC1CC1 | active: 39.8 µM | – |
| CCCCCCNc1nc2c(c(=O)[nH]c(=O)n2C)n1CCCc1ccccc1 | – | inactive: -6.81% |
| Cc1ccc([N+](=O)[O-])cc1N=Cc1ccc(C#Cc2ccccc2)cc1 | inconclusive: 11.2 µM [inhibitor, partial curve, poor fit] | – |
| CCCOc1ccc(OC(=O)c2cn(-c3ccc(OC)cc3)c(=O)c3ccccc23)cc1 | inconclusive: 31.6 µM [inhibitor, single point] | – |
| O=C1Nc2ccc(-c3ccccc3F)cc2C(=O)N2CCN(C(=O)c3ccccc3)C[C@H]12 | active: 39.8 µM | – |
| CCOc1ccc(NC(=O)c2cc(-c3ccc[nH]3)n[nH]2)cc1 | – | inactive: -16.1% |
| Cc1ccc(C(=O)N2CCC3(CC2)NC(=O)N(c2ccccc2)N3)s1 | inconclusive: 14.1 µM [inhibitor, partial curve] | – |
| CCCOc1ccc(C(=O)Nc2ccc3oc(-c4ccc(N(C)C)cc4)nc3c2)cc1 | inconclusive: 17.8 µM [inhibitor, partial curve, poor fit] | – |
| Cc1cc(C)c2cc(C(=O)NCc3ccc4c(c3)OCO4)[nH]c2c1 | inconclusive: 25.1 µM [inhibitor, single point] | – |
| CC(C)c1ccc2c(c1)-c1ccccc1S(=O)(=O)N2CC(=O)NCc1ccco1 | – | inactive: -1.66% |
| C[C@]12CCCCC1CCC1C2CC[C@]2(C)C(N)CCC12 (some centres undefined) | inconclusive: 25.1 µM [inhibitor, single point] | – |
| CC(C)NC(=O)c1cnc2c(c1)N(C(=O)Cc1cn(C)c3ccccc13)CCC2 | inconclusive: 31.6 µM [inhibitor, single point] | – |
| Cc1ccc(Nc2ccc(N3CCN(S(=O)(=O)c4ccc(Cl)c(Cl)c4)CC3)nn2)cc1 | – | inactive: -3.44% |
| CC(C)c1noc([C@@H]2C[C@@H](O)CN2Cc2cc3ccccc3o2)n1 | active: 39.8 µM | – |
| Cc1ccccc1OCC(=O)Nc1ccc2nc(SCC(N)=O)sc2c1 | – | inconclusive: -36.3% [inhibitor] |
| CCN(CC)c1cc(CCC(=O)NCCOC)ccn1 | active: 17.8 µM | – |
| COC(=O)c1ccc(OCC(=O)c2ccc3c(c2)OCCO3)cc1 | – | inactive: 14% |
| C(=N\Nc1ccc2ccccc2n1)/c1cccs1 | inconclusive: 14.1 µM [inhibitor, partial curve, poor fit] | – |
| O=C(NCCn1ccnc1-c1cc2n(n1)CCCNC2)c1ccncc1 | inconclusive: 3.55 µM [inhibitor, full curve] | – |
